From the antibiotic and cytotoxicity screens of Wong et al. (2023)
The other results are listed elsewhere or left out.

Tests used:
HSkMC = human skeletal muscle cells; experiment: cytotoxicity call (relative viability < 0.9); settings: 10 µM
HepG2 = experiment: cytotoxicity call (relative viability < 0.9); settings: 10 µM
S. aureus RN4220 = experiment: growth inhibition call (relative growth <= 0.2); settings: 50 µM

SMILES | cytotoxicity call (HSkMC) | cytotoxicity call (HepG2) | growth inhibition call (S. aureus RN4220)
O=C(C[C@H]1CC[C@@H]2[C@H](COC[C@H](O)CN2Cc2ccccc2F)O1)N[C@@H]1CCN(Cc2ccccc2)C1 | inactive | inactive | inactive
C[C@@H]1CN([C@H](C)CO)C(=O)c2cccc(NS(=O)(=O)c3cn(C)cn3)c2O[C@@H]1CN(C)CC1CCCCC1 | inactive | inactive | inactive
CC(=O)N(C)C[C@@H]1Oc2ncc(C#C[C@H](C)O)cc2C(=O)N([C@H](C)CO)C[C@@H]1C | inactive | inactive | inactive
NC[C@](O)(c1cccs1)C1CC1 | inactive | inactive | inactive
C[C@@H]1CN([C@H](C)CO)C(=O)c2cccc(NS(=O)(=O)c3cccs3)c2O[C@@H]1CN(C)C(=O)Nc1cccc2ccccc12 | inactive | inactive | inactive
Cc1ccc2nc(-c3ccc(/N=C\c4ccc[nH]4)cc3)sc2c1 | inactive | active | inactive
COc1ccc2c3c(n(c2c1)C)[C@H](CO)N(C[C@]13CN(C1)C(=O)c1ccccn1)S(=O)(=O)c1ccc(cc1)C | inactive | inactive | inactive
COc1ccc(COC[C@]23N=C4SCc5ccccc5CN4[C@H](c4ccccc4O2)[C@H]3CO[Si](C)(C)C(C)(C)C)cc1 | inactive | inactive | inactive
COc1ccc(CN(C)C[C@@H]2Oc3ccc(NS(=O)(=O)c4cn(C)cn4)cc3CC(=O)N([C@@H](C)CO)C[C@@H]2C)cc1 | inactive | inactive | inactive
COc1ccc(S(=O)(=O)Nc2ccc3c(c2)C(=O)N([C@@H](C)CO)C[C@@H](C)[C@@H](CN(C)C(=O)Nc2c(C)noc2C)OCCCC[C@H](C)O3)cc1 | inactive | inactive | inactive
C[C@H](CO)N1C[C@H](C)[C@H](CN(C)Cc2ccc(C(=O)O)cc2)Oc2c(NC(=O)c3ccc(-c4nccs4)cc3)cccc2C1=O | inactive | inactive | inactive
COC(=O)c1c2oc(c1C(=O)OC)C(=O)N[C@H](Cc1ccccc1)Cn1cc(nn1)[C@@H](Cc1ccccc1)NC(=O)N[C@@H](CO)CC2 | inactive | inactive | inactive
COc1ccc(S(=O)(=O)N(C)C[C@@H]2OCCCC[C@@H](C)Oc3ccc(NS(=O)(=O)c4ccc(Cl)cc4)cc3C(=O)N([C@H](C)CO)C[C@H]2C)cc1 | inactive | active | inactive
C[C@@H]1CCCCO[C@@H](CN(C)S(=O)(=O)c2ccc(F)cc2)[C@H](C)CN([C@H](C)CO)C(=O)c2cc(NS(=O)(=O)c3ccc(Cl)cc3)ccc2O1 | inactive | inactive | inactive
C[C@H](CO)N1C[C@H](C)[C@H](CN(C)CC2CCCCC2)Oc2ccc(NC(=O)CCN3CCOCC3)cc2C1=O | inactive | inactive | inactive
O=C(C[C@H]1CC[C@H]2[C@@H](COC[C@H](O)CN2S(=O)(=O)c2ccccc2)O1)N[C@@H]1CCN(Cc2ccccc2)C1 | inactive | inactive | inactive
C[C@H](CO)N1C[C@H](C)[C@H](CN(C)C(=O)Nc2ccc(C(F)(F)F)cc2)Oc2ccc(NC(=O)Nc3ccc(C(F)(F)F)cc3)cc2C1=O | inactive | inactive | inactive
COc1ccc(CN(C)C[C@@H]2OCCCC[C@H](C)Oc3ccc(NC(=O)Nc4c(C)noc4C)cc3C(=O)N([C@H](C)CO)C[C@@H]2C)cc1 | inactive | inactive | inactive
C[C@@H]1CN([C@H](C)CO)C(=O)c2cc(NS(C)(=O)=O)ccc2O[C@@H](C)CCCCO[C@@H]1CN(C)Cc1ccc(Cl)c(Cl)c1 | inactive | inactive | inactive
C[C@@H]1CN([C@@H](C)CO)C(=O)c2cc(NC(=O)CCC(F)(F)F)ccc2O[C@@H](C)CCCCO[C@@H]1CN(C)Cc1ccc2c(c1)OCO2 | inactive | inactive | inactive
Cc1noc(C)c1NC(=O)N(C)C[C@@H]1OCCCC[C@H](C)Oc2ccc(NS(=O)(=O)c3ccc(Cl)cc3)cc2C(=O)N([C@@H](C)CO)C[C@@H]1C | inactive | inactive | inactive
CC(C)NC(=O)N(C)C[C@@H]1Oc2c(NS(=O)(=O)c3ccc(Cl)cc3)cccc2C(=O)N([C@H](C)CO)C[C@H]1C | inactive | inactive | inactive
C[C@H]1CN([C@@H](C)CO)C(=O)Cc2cc(NS(C)(=O)=O)ccc2O[C@@H]1CN(C)S(=O)(=O)c1ccc(F)cc1 | inactive | inactive | inactive
CC(C)(C)OC(=O)C[C@@H]1CC=CC[C@@H](CC(=O)N[C@H](CO)Cc2ccccc2)C(=O)N[C@@H](C(C)(C)C)COC1=O | inactive | inactive | inactive
C[C@@H]1CCCCO[C@H](CN(C)C(=O)NC2CCCCC2)[C@@H](C)CN([C@H](C)CO)C(=O)c2cc(NC(=O)NC3CCCCC3)ccc2O1 | inactive | inactive | inactive
O=C([O-])P(=O)([O-])[O-].[Na+].[Na+].[Na+] | inactive | inactive | inactive
CN(C)C(=O)c1cccc(-c2cccc(-c3nc(C(=O)NC4CCCCC4)cc4c3[C@H](CCO)N([S@@](=O)C(C)(C)C)C4)c2)c1 | inactive | inactive | inactive
O=C(NCC(F)(F)F)[C@@H]1c2ccccc2C(=O)N(Cc2ccccc2C(F)(F)F)[C@H]1c1ccc(CO)cc1 | inactive | inactive | inactive

SMILES | cytotoxicity call (HSkMC) | cytotoxicity call (HepG2) | growth inhibition call (S. aureus RN4220)
CC(C)NC(=O)N(C)C[C@@H]1Oc2cc(C#Cc3ccc(F)cc3)ccc2S(=O)(=O)N([C@H](C)CO)C[C@@H]1C | inactive | inactive | inactive
O=C(CNC(=O)c1ccc(Cl)cc1)NO | inactive | inactive | inactive
COC(=O)[C@H]1[C@H](CO)[C@H]2Cn3c(cccc3=O)[C@H]2N1C(=O)C1CC1 | inactive | inactive | inactive
C[C@@H]1CN([C@@H](C)CO)C(=O)c2cccc(NC(=O)C3CCOCC3)c2O[C@H]1CN(C)S(=O)(=O)c1ccccc1 | inactive | inactive | inactive
O=C1O[C@@H](c2ccccc2)[C@@H](c2ccccc2)N2[C@@H](c3ccc(OCCO)cc3)[C@]3(C(=O)Nc4ccc(C#CC5(O)CCCCCC5)cc43)[C@@H](C(=O)Nc3nc4ccccc4s3)[C@H]12 | inactive | inactive | inactive
C[C@@H]1CN([C@H](C)CO)C(=O)c2cc(C#Cc3ccccc3F)cnc2O[C@@H]1CN(C)S(=O)(=O)c1ccccc1F | inactive | inactive | inactive
C[C@H]1CN([C@@H](C)CO)S(=O)(=O)c2ccc(-c3ccc(C#N)cc3)cc2O[C@H]1CN(C)C(=O)CN(C)C | inactive | inactive | inactive
COc1ccc(NC(=O)N(C)C[C@H]2Oc3ccc(NC(=O)Cn4cnnn4)cc3CC(=O)N([C@@H](C)CO)C[C@H]2C)cc1 | inactive | inactive | inactive
C[C@H](CO)N1C[C@H](C)[C@@H](CN(C)Cc2ccc(-c3ccccc3)cc2)Oc2c(NC(=O)c3ccncc3)cccc2C1=O | inactive | active | inactive
C[C@@H]1CN([C@H](C)CO)C(=O)c2cccc(NC(=O)Nc3ccccc3)c2O[C@H]1CN(C)CC1CCCCC1 | inactive | inactive | inactive
C[C@@H]1CN([C@H](C)CO)C(=O)c2cc(NC(=O)Cc3cn(C)c4ccccc34)ccc2O[C@@H]1CN(C)Cc1ccc(Cl)c(Cl)c1 | active | active | inactive
C[C@H](CO)N1C[C@H](C)[C@@H](CN(C)C(=O)Cc2ccccn2)Oc2ncc(-c3ccc(F)cc3)cc2C1=O | inactive | inactive | inactive
O=C(NO)c1cccc(C(=O)N/N=C/[C@H](O)[C@H](O)[C@@H](O)[C@@H](O)CO)c1 | inactive | inactive | inactive
OCc1ccc2nccn2c1 | inactive | inactive | inactive
O=C(O)CC1(n2cnnn2)CCSCC1 | inactive | inactive | inactive
NCCCCCCNC(=O)[C@@H]1C[C@@H]2C(=O)N[C@@H](CCCCN)C(=O)N2[C@@H]1c1ccc(O)cc1 | inactive | inactive | inactive
CCOC(=O)Cn1cccc2oc(=O)nc1-2 | inactive | inactive | inactive
CC(C)CN1C(=O)[C@@]2(Cc3ccccc31)c1ccccc1C(=O)N(Cc1ccccc1)[C@H]2c1ccc(CO)cc1 | inactive | inactive | inactive
C[C@@H]1CN([C@H](C)CO)C(=O)c2cc(NC(=O)Nc3cccc4ccccc34)ccc2O[C@H]1CN(C)Cc1ccc2c(c1)OCO2 | inactive | inactive | inactive
COc1cc(/C=C/c2cc(/C=C/c3ccc(O)c(OC)c3)n(Cc3ccc4c(c3)OCO4)c(=S)n2)ccc1O | inactive | inactive | inactive
NCC[C@@H]1CC[C@@H](NC(=O)C2CC2)[C@@H](CO)O1 | inactive | inactive | inactive
CCOC(=O)[C@@](C)(N)Cc1ccc(O)c(O)c1 | active | inactive | inactive
CC(C)(C)OC(=O)CC[C@]1(C(=O)NC[C@@H](O)CO)COC(c2ccc(OCCCO)cc2)=N1 | inactive | inactive | inactive
C[C@H]1CN([C@@H](C)CO)C(=O)c2cc(NS(=O)(=O)c3cn(C)cn3)ccc2O[C@H]1CN(C)C(=O)NC1CCCCC1 | inactive | inactive | inactive
COc1ccc(C#Cc2ccc3c(c2)[C@]2(C(=O)N3)[C@H](C(=O)N3CCN(c4ncccn4)CC3)[C@H]3C(=O)O[C@H](c4ccccc4)[C@H](c4ccccc4)N3[C@@H]2c2ccccc2OCCO)cc1 | inactive | inactive | inactive
C[C@H]1CCCCO[C@H](CN(C)C(=O)NC2CCCCC2)[C@@H](C)CN([C@@H](C)CO)C(=O)c2cc(NS(=O)(=O)c3cccs3)ccc2O1 | inactive | inactive | inactive
COc1ccc(NC(=O)N(C)C[C@@H]2OCCCC[C@@H](C)Oc3ccc(NS(=O)(=O)c4ccc(Cl)cc4)cc3C(=O)N([C@@H](C)CO)C[C@@H]2C)cc1 | inactive | inactive | inactive
